Source: article PMC4434814
These are yes or no findings as the source states them, for the method shown. Binding seen in cells or lysates may run through a third protein. Some results given as binding are weak or reduced against the parent protein; the word gives no strength. For some assays here: Where a sequence is shown, tags or fusion partners need not be part of it.

Protein sequences, listed by entry. Tags and fused reporters are not part of them.
UniProt P60953: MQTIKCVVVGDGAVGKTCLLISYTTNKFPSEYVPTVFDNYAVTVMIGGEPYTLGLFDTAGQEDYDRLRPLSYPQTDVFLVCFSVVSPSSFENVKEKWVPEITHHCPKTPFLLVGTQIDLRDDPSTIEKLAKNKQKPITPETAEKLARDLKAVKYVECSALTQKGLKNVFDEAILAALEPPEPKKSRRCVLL
UniProt Q9H4E5: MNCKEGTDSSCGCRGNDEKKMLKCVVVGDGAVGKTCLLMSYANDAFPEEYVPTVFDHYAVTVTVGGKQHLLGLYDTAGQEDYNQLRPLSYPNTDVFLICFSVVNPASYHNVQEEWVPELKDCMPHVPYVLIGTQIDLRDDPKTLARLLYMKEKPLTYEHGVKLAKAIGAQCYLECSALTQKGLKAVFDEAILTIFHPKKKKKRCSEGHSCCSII
UniProt Q5JSL3: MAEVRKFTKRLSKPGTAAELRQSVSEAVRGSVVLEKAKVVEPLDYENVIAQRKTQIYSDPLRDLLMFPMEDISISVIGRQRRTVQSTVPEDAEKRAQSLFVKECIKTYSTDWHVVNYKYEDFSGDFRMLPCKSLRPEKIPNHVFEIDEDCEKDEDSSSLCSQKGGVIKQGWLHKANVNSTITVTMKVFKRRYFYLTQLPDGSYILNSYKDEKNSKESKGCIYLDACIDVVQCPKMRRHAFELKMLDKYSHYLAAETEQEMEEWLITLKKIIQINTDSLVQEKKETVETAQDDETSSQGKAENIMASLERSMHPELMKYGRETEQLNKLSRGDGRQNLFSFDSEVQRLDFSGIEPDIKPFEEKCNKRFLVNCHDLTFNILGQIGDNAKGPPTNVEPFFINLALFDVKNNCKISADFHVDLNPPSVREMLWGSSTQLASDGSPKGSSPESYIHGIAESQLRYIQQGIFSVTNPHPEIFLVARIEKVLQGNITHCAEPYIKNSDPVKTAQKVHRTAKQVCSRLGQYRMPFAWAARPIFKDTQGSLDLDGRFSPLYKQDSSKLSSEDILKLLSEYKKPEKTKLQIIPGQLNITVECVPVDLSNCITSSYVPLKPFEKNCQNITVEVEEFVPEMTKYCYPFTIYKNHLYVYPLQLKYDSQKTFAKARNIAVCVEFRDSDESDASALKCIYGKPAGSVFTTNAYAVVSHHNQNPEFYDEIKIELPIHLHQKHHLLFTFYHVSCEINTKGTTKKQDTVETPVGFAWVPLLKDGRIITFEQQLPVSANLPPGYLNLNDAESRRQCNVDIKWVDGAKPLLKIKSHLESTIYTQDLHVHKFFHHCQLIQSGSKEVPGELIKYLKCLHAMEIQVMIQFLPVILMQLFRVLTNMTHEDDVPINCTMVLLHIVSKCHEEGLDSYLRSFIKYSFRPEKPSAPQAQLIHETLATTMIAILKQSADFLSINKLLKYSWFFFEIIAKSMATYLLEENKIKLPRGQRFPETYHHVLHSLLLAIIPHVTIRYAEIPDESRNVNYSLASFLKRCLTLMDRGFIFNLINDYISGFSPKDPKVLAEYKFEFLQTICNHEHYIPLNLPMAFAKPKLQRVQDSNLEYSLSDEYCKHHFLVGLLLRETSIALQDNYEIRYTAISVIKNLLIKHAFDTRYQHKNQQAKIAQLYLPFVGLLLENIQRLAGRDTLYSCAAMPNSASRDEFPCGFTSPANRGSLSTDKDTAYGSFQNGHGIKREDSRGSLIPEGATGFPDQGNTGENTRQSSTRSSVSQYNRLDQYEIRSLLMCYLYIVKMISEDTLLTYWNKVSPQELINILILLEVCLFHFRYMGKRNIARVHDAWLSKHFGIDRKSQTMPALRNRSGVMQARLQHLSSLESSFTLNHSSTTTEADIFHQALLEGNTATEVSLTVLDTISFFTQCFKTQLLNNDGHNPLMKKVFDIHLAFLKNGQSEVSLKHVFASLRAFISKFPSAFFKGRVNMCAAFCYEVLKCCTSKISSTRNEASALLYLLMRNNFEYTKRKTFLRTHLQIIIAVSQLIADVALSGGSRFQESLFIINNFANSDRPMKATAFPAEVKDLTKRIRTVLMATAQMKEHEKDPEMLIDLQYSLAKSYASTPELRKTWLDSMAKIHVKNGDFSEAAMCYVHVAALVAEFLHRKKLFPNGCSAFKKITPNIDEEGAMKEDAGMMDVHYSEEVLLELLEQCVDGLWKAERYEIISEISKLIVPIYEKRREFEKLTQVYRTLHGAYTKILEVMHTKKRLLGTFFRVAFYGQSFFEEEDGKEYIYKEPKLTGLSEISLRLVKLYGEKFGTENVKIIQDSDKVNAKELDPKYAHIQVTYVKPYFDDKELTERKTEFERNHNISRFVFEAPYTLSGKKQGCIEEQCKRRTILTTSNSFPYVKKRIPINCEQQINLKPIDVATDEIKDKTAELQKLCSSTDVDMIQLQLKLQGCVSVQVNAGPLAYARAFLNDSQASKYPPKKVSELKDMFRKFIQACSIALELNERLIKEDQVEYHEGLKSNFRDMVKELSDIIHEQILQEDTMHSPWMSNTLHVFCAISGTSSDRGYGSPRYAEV
UniProt Q9BZ29: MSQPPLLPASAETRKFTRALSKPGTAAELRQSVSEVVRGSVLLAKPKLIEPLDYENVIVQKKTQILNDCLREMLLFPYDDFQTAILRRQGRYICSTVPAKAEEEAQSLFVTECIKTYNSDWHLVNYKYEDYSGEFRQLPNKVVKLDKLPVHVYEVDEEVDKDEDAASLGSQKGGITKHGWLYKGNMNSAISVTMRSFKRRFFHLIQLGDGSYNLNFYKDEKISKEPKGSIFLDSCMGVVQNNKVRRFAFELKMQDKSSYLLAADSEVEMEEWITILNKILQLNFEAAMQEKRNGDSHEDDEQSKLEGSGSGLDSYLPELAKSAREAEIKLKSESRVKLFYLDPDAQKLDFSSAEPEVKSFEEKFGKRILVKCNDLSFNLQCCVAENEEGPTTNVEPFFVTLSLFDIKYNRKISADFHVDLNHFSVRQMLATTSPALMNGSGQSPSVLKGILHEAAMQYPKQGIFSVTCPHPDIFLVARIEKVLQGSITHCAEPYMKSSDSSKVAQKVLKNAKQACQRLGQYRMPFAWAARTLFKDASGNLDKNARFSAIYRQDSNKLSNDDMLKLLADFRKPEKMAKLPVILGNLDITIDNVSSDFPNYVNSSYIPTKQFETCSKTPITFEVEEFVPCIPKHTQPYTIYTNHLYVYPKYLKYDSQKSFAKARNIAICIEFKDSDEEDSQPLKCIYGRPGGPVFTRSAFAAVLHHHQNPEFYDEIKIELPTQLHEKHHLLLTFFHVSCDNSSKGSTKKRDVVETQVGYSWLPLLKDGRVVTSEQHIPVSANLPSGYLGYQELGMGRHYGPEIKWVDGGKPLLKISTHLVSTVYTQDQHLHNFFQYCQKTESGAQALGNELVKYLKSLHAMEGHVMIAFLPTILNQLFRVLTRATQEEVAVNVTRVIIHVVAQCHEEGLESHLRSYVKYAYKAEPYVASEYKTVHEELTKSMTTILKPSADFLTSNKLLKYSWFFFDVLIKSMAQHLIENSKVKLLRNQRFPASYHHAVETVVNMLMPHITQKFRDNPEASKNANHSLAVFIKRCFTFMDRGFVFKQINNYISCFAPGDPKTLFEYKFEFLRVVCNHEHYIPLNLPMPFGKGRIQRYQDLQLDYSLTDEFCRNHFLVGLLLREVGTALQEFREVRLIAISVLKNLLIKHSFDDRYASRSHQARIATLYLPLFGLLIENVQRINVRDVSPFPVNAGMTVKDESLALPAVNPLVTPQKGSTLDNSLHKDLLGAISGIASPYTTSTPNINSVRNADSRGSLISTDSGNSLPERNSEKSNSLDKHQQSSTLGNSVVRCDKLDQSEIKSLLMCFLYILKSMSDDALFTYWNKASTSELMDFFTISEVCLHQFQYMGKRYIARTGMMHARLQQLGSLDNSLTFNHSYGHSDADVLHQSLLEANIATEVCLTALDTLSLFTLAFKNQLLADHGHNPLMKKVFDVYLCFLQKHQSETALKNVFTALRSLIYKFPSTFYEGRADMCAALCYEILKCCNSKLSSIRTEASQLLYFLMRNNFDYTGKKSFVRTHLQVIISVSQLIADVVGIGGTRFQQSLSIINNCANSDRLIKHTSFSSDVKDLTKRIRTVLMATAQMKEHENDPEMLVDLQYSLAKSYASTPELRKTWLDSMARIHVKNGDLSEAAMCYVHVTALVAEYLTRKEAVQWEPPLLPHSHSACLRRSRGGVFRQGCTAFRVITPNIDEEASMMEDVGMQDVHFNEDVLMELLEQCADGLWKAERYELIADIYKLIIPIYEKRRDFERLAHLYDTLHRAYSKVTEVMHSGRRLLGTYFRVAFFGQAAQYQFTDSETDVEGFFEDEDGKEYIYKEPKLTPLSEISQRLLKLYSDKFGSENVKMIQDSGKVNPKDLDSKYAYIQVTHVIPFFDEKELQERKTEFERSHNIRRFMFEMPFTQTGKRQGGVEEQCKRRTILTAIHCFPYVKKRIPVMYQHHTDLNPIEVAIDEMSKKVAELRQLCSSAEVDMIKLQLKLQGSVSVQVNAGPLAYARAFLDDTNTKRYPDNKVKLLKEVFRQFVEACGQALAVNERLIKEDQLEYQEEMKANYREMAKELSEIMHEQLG

How the values were obtained:
GST-bound Cdc42 [1] = biological target: GST-bound Cdc42 (UniProt P60953); assay: pull-down; GST-GTPase on glutathione-sepharose 4B beads (200 µg), nucleotide-depleted (Solution A: 20 mM Tris-Cl pH 7.5, 50 mM NaCl, 10 mM EDTA, 1 mM DTT, 0.1% Triton X-100, 5% glycerol); total protein extracts of transfected 293T cells added, 4°C overnight; immunoblot with HA or FLAG antibodies; only the target purified
GST-bound RhoJ = GST-bound RhoJ (UniProt Q9H4E5); assay: as above
GST-bound Cdc42 [2] = biological target: GST-bound Cdc42 (UniProt P60953); assay: condition: only GTP-loaded GTPase (1 mM GTP, 10 mM MgCl2); pull-down; as a1, but GST-GTPase GTP-loaded (Solution C: 1 mM GTP and 10 mM MgCl2 instead of EDTA); only the target purified
GST-bound Cdc42 [3] = biological target: GST-bound Cdc42 (UniProt P60953); assay: condition: only GDP-loaded GTPase (1 mM GDP, 10 mM MgCl2); pull-down; as a1, but GST-GTPase GDP-loaded (Solution B: 1 mM GDP and 10 mM MgCl2 instead of EDTA); only the target purified
GST-bound RhoD = biological target: T1, GST-bound RhoD (UniProt O00212); assay: pull-down; GST-GTPase on glutathione-sepharose 4B beads (200 µg), nucleotide-depleted (Solution A: 20 mM Tris-Cl pH 7.5, 50 mM NaCl, 10 mM EDTA, 1 mM DTT, 0.1% Triton X-100, 5% glycerol); total protein extracts of transfected 293T cells added, 4°C overnight; immunoblot with HA or FLAG antibodies; only the target purified
T1 sequence: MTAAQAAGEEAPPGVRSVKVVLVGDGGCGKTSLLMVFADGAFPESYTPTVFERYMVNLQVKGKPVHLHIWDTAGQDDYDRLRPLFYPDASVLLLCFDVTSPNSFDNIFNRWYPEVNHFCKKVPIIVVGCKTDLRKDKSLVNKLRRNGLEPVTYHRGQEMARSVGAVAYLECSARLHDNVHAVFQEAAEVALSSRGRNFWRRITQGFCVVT

Substance | binding (GST-bound Cdc42 [1]) | binding (GST-bound RhoJ) | binding (GST-bound Cdc42 [2]) | binding (GST-bound Cdc42 [3]) | binding (GST-bound RhoD)
HA-Dock11 (from UniProt Q5JSL3 1-2073) | binds | binds weakly | no binding | no binding | 
FLAG-Dock9 (from UniProt Q9BZ29 1-2069) | binds |  | no binding | no binding | binds weakly
